# Source: PubChem BioAssay AID1745853 (National Center for Advancing Translational Sciences (NCATS), 2022)
# “And” between values parts separate entries of the source, which are not always exact repeats. Identical values can stand only once. The list shows a part of the results. Shown are side measurements of this screen, not its main read-out; they come without a call.
# Tests used:
# Test in all cases: Primary Screen for Target Class Profiling of Small Molecule Inhibitors of Methyltransferases
# [1] = molecular target: Glycine N-methyltransferase (Homo sapiens) (UniProt Q14749); settings: purified enzyme, MTase-Glo SAH luminescence; measured here: GNMT inhibition; at 40 µM; stronger effect = lower value
# Summary of the method: (§1)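 Each enzyme was assayed with SAM and its substrate. SAH formation detected by MTase-Glo luminescence; single-point 40 uM screen[…].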
# [2] = molecular target: Guanidinoacetate N-methyltransferase (Homo sapiens) (UniProt Q14353); settings: purified enzyme, MTase-Glo SAH luminescence; measured here: GAMT inhibition; at 40 µM; stronger effect = lower value
# Summary of the method: as §1
# [3] = molecular target: Histamine N-methyltransferase (Homo sapiens) (UniProt P50135); settings: purified enzyme, MTase-Glo SAH luminescence; measured here: HNMT inhibition; at 40 µM; stronger effect = lower value
# Summary of the method: as §1
# [4] = molecular target: Nicotinamide N-methyltransferase (Homo sapiens) (UniProt P40261); settings: purified enzyme, MTase-Glo SAH luminescence; measured here: NNMT inhibition; at 40 µM; stronger effect = lower value
# Summary of the method: as §1
# [5] = molecular target: Phenylethanolamine N-methyltransferase (Homo sapiens) (UniProt P11086); settings: purified enzyme, MTase-Glo SAH luminescence; measured here: PNMT inhibition; at 40 µM; stronger effect = lower value
# Summary of the method: as §1
# % is set by controls: 0 for no effect and ±100 for the full control effect.
Structure (SMILES),"activity change, negative = inhibition [1]","activity change, negative = inhibition [2]","activity change, negative = inhibition [3]","activity change, negative = inhibition [4]","activity change, negative = inhibition [5]"
COc1cc(NC(=O)Cn2nc3n(Cc4ccccc4)c(=O)c4ccccc4n3c2=O)cc(OC)c1,-1.04%,5.55%,1.19%,-2.33%,-1.38%
COc1ccc(-c2c(C(F)(F)F)oc3cc(OC(C)C(=O)OC4CCCCC4)ccc3c2=O)cc1OC (stereo not given),-7.5%,5.09%,0.99%,-3.1%,-3.09%
CCCN1C(=O)c2c(C(=O)NCc3cccc(Cl)c3)ncn2CC1(C)C(=O)NCc1ccc(OC)cc1 (stereo not given),0.82%,0%,2.66%,5.46%,5.04%
NC1C=CC=C(C(=O)O)C1 (stereo not given),5.78%,2.68%,11.1%,-3.07%,1.04%
CC(C)(Sc1ccc(CCN(CCCCC2CCCCC2)C(=O)NC2CCCCC2)cc1)C(=O)O,-7.66% and -4.32%,-0.892% and 9.09%,5.7% and -1.24%,-56.6% and -33.8%,1.98% and 4.95%
COc1ccc(CNc2nc3c(S(=O)(=O)c4ccc(C)cc4C)nnn3c3ccccc23)cc1,1.99%,-1.67%,-1.03%,0.248%,-3.25%
COc1cccc(NC(=O)Cn2c(=O)oc3cc(S(=O)(=O)N4CCCCC4C)ccc32)c1 (stereo not given),-6.31%,-5%,-8.99%,-17.6%,-60.6%
CN(C(=O)Cc1ccsc1)C1CCc2nn(C)c(=O)n2CC1 (stereo not given),-6.58%,-6.7%,-3.69%,-9.72%,6.07%
COc1cc(OC)c(/C=C/S(=O)(=O)Cc2ccc(OC)c(NCC(=O)O)c2)c(OC)c1,4.28%,3.72%,13.1%,-12.4%,5.07%
Cc1cc(-c2cnc(Nc3ccc(F)cc3)c3c2CCO3)ccn1,-14.7%,2.37%,-11.8%,-16.2%,-13.6%
CS(=O)(=O)N1Cc2ccccc2CC2(CCCN2Cc2cccnc2)C1 (stereo not given),-6.73%,-8.21%,-2.97%,-11.4%,-1.45%
CC(C)c1cc2c(N3CCN(C4=NCC(C)(C)S4)CC3)ncnc2s1,-5.32%,2.49%,-35.4%,-69%,-4.61%
CCN1C(=O)c2c(C(=O)NCc3ccccc3Cl)ncn2CC1(C)C(=O)NC1CCCC1 (stereo not given),-5.21%,-11.3%,3.7%,-6.87%,-10.9%
CC(C)C(C(=O)N(C)C(C)C(N)=O)N(C)C(=O)C1CCCN1C(=O)/C=C/C=C/C(O)C(C)O (stereo not given),-0.645%,2.15%,3.41%,-11%,2.24%
CC1(C(=O)NC2CCCCC2)Cn2c(nc3ccccc32)C(=O)N1CCc1ccccc1 (stereo not given),4.03%,3.67%,4.65%,-0.728%,-1.96%
Cc1ccc(NC(=O)CSc2nnc3n(CC(C)C)c(=O)c4ccc(C(=O)NC(C)C)cc4n23)c(C)c1,0.423%,2.33%,4.77%,-0.947%,-0.478%

Structure (SMILES),"activity change, negative = inhibition [1]","activity change, negative = inhibition [2]","activity change, negative = inhibition [3]","activity change, negative = inhibition [4]","activity change, negative = inhibition [5]"
C/C=C(/C)C(=O)O[C@@H]1C[C@@H](OC(=O)CC(C)C)C2(C)C3C(=O)C=C(C)C2C3C1(C)C (stereo not given in full),0%,3.4%,4.12%,-12.2%,0.996%
O=C(NCCCc1ccccc1)c1ccc2c(=O)nc3c(-c4ccccc4)n[nH]n3c2c1,-10.4%,0%,3.92%,1.01%,-1.69%
O=C(Cn1c(=O)oc2cc(S(=O)(=O)NC3CCCC3)ccc21)NCc1cccs1,2.37%,3.9%,4.61%,5.82%,1.11%
Cc1ccc(CN2C(=O)c3cc4ccccc4n3CC2(C)C(=O)NCc2ccccc2)o1 (stereo not given),4.39%,1.67%,5.92%,6.44%,3.23%
OC(CN1CCN(c2cccc(Cl)c2)CC1)C(c1ccccc1)c1ccccc1 (stereo not given),-0.059%,0.109%,5.77%,-18.8%,-1.35%
C=C1OC2CC(C(=O)O)C=CC2NC1=O (stereo not given),0.18%,-6.94%,3.91%,-17.9%,-4.76%
Cc1cc(C)cc(OCC(=O)Nc2ccc3c(c2)C(=O)c2ccccc2C3=O)c1,0.838%,0.108%,-3.26%,-2.69%,-5.73%
COc1ccccc1OCCNC(=O)[C@]12CCCC[C@@H]1N(C)C(=O)CC2,0.037%,2.22%,3.02%,0.861%,16.4%
Nc1ccc(CCNc2ncnc3c2ncn3C2OC(CO)C(O)C2O)cc1 (stereo not given),14.7%,71.4%,0.5%,26.2%,0.738%
COc1ccc(C2(C(=O)N3C[C@@H](CO)[C@H](c4ccccn4)C3)CC2)cc1,-3.19%,-6.1%,-1.1%,-12.1%,-7.39%
CC(C)N1C[C@@H](COCc2ccccc2)[C@H](c2ccccc2)[S+]1(=O)[O-],-6.29%,-5.36%,-3.3%,-14.2%,-7.17%
COCCN(CCOC)C(=O)[C@@H](C)C1CC[C@@]2(C)CC[C@H](NC(=O)c3cncnc3)[C@@H](C)[C@@H]2[C@H]1O (stereo not given in full),-1.55%,-1.38%,-0.9%,-0.786%,3%
CN(C)CCOC(C)(c1ccccc1)c1ccc(Cl)cc1 (stereo not given),-12.1%,-2.54%,-60.4%,-35.8%,-10.9%
COCCn1ccc2ccc(C(=O)Nc3ccc4c(c3)C(=O)N3CCC[C@H]3C(=O)N4)cc21,-12.7%,-2.17%,-4.06%,-9.16%,-11.2%
CCc1cc2c(cc1CC)CC(NCC(O)c1ccc(O)c3[nH]c(=O)ccc13)C2 (stereo not given),1.86%,19.6%,-4.1%,-34.8%,-0.591%
